In the supplement of paper PMC8728848:
The list shows a part of the results.

What was measured:
Assay in all cases: glycan array binding signal (z-score within array); higher = stronger binding
Conditions in all cases: glycan notation: IUPAC condensed, linker removed
[1] = target: Neu5Ac(a2-6)Gal(b1-4)GlcNAc(b1-2)Man(a1-3)[Man(a1-6)]Man(b1-4)GlcNAc(b1-4)GlcNAc
In short: (§1)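 Columns mapping to the same glycan were averaged after glycan names were converted to IUPAC-condensed notation. The data come from 3228 arrays in the Consortium for Functional Glycomics database, limited to those with an available protein sequence. Binding is reported as a within-array Z-score averaged across arrays of one protein sequence and across linkers.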

[2] = target: Neu5Ac(a2-6)Gal(b1-4)GlcNAc(b1-2)Man(a1-3)[Neu5Ac(a2-3)Gal(b1-4)GlcNAc(b1-2)Man(a1-6)]Man(b1-4)GlcNAc(b1-4)GlcNAc
In short: as §1

[3] = target: Neu5Ac(a2-6)Gal(b1-4)GlcNAc(b1-2)Man(a1-3)[Neu5Ac(a2-6)Gal(b1-4)GlcNAc(b1-2)Man(a1-6)]Man(b1-4)GlcNAc(b1-4)GlcNAc
In short: as §1

[4] = target: Neu5Ac(a2-6)Gal(b1-4)GlcNAc(b1-2)Man(a1-3)[Neu5Ac(a2-6)Gal(b1-4)GlcNAc(b1-2)Man(a1-6)]Man(b1-4)GlcNAc(b1-4)[Fuc(a1-6)]GlcNAc
In short: as §1

[5] = target: Neu5Ac(a2-6)Gal(b1-4)GlcNAc(b1-2)Man(a1-6)Man(b1-4)GlcNAc(b1-4)GlcNAc
In short: as §1

[6] = target: Neu5Ac(a2-6)Gal(b1-4)GlcNAc(b1-2)Man(a1-6)[Gal(b1-4)GlcNAc(b1-2)Man(a1-3)]Man(b1-4)GlcNAc(b1-4)GlcNAc
In short: as §1

[7] = target: Neu5Ac(a2-6)Gal(b1-4)GlcNAc(b1-2)Man(a1-6)[GlcNAc(b1-2)Man(a1-3)]Man(b1-4)GlcNAc(b1-4)GlcNAc
In short: as §1

[8] = target: Neu5Ac(a2-6)Gal(b1-4)GlcNAc(b1-2)Man(a1-6)[Man(a1-3)]Man(b1-4)GlcNAc(b1-4)GlcNAc
In short: as §1

[9] = target: Neu5Ac(a2-6)Gal(b1-4)GlcNAc(b1-2)[Neu5Ac(a2-6)Gal(b1-4)GlcNAc(b1-4)]Man(a1-3)[GlcNAc(b1-4)][Neu5Ac(a2-6)Gal(b1-4)GlcNAc(b1-2)[Neu5Ac(a2-6)Gal(b1-4)GlcNAc(b1-6)]Man(a1-6)]Man(b1-4)GlcNAc(b1-4)GlcNAc
In short: as §1

[10] = target: Neu5Ac(a2-6)Gal(b1-4)GlcNAc(b1-2)[Neu5Ac(a2-6)Gal(b1-4)GlcNAc(b1-4)]Man(a1-3)[GlcNAc(b1-4)][Neu5Ac(a2-6)Gal(b1-4)GlcNAc(b1-4)Man(a1-6)]Man(b1-4)GlcNAc(b1-4)GlcNAc
In short: as §1

[11] = target: Neu5Ac(a2-6)Gal(b1-4)GlcNAc(b1-2)[Neu5Ac(a2-6)Gal(b1-4)GlcNAc(b1-6)]Man(a1-6)[Neu5Ac(a2-6)Gal(b1-4)GlcNAc(b1-2)Man(a1-3)][GlcNAc(b1-4)]Man(b1-4)GlcNAc(b1-4)GlcNAc
In short: as §1

[12] = target: Neu5Ac(a2-6)Gal(b1-4)GlcNAc(b1-3)Gal(b1-3)GlcNAc
In short: as §1

[13] = target: Neu5Ac(a2-6)Gal(b1-4)GlcNAc(b1-3)Gal(b1-4)GlcNAc
In short: as §1

[14] = target: Neu5Ac(a2-6)Gal(b1-4)GlcNAc(b1-3)Gal(b1-4)GlcNAc(b1-2)Man(a1-3)[Neu5Ac(a2-6)Gal(b1-4)GlcNAc(b1-3)Gal(b1-4)GlcNAc(b1-2)Man(a1-6)]GalNAc
In short: as §1

[15] = target: Neu5Ac(a2-6)Gal(b1-4)GlcNAc(b1-3)Gal(b1-4)GlcNAc(b1-3)Gal(b1-4)GlcNAc
In short: as §1

[16] = target: Neu5Ac(a2-6)Gal(b1-4)GlcNAc(b1-3)Gal(b1-4)GlcNAc(b1-3)Gal(b1-4)GlcNAc(b1-2)Man(a1-3)[Neu5Ac(a2-6)Gal(b1-4)GlcNAc(b1-3)Gal(b1-4)GlcNAc(b1-3)Gal(b1-4)GlcNAc(b1-2)Man(a1-6)]GalNAc
In short: as §1

[17] = target: Neu5Ac(a2-6)Gal(b1-4)GlcNAc(b1-3)Gal(b1-4)GlcNAc(b1-3)GalNAc
In short: as §1

[18] = target: Neu5Ac(a2-6)Gal(b1-4)GlcNAc(b1-3)Gal(b1-4)GlcNAc(b1-3)[Neu5Ac(a2-6)Gal(b1-4)GlcNAc(b1-3)Gal(b1-4)GlcNAc(b1-6)]GalNAc
In short: as §1

[19] = target: Neu5Ac(a2-6)Gal(b1-4)GlcNAc(b1-3)Gal(b1-4)GlcNAc(b1-6)[Gal(b1-3)]GalNAc
In short: as §1

[20] = target: Neu5Ac(a2-6)Gal(b1-4)GlcNAc(b1-3)Gal(b1-4)[Fuc(a1-3)]GlcNAc(b1-3)Gal(b1-4)[Fuc(a1-3)]GlcNAc
In short: as §1

[21] = target: Neu5Ac(a2-6)Gal(b1-4)GlcNAc(b1-3)GalNAc
In short: as §1

[22] = target: Neu5Ac(a2-6)Gal(b1-4)GlcNAc(b1-3)[Neu5Ac(a2-6)Gal(b1-4)GlcNAc(b1-6)]GalNAc
In short: as §1

[23] = target: Neu5Ac(a2-6)Gal(b1-4)GlcNAc(b1-6)GalNAc
In short: as §1

[24] = target: Neu5Ac(a2-6)Gal(b1-4)GlcNAc(b1-6)[Gal(b1-3)GlcNAc(b1-3)]Gal(b1-4)Glc
In short: as §1

[25] = target: Neu5Ac(a2-6)Gal(b1-4)GlcNAc(b1-6)[Gal(b1-3)]GalNAc
In short: as §1

[26] = target: Neu5Ac(a2-6)Gal(b1-4)GlcNAc6S
In short: as §1

Neu5Ac(a2-6)GalNAc = target: Neu5Ac(a2-6)GalNAc
In short: as §1

[27] = target: Neu5Ac(a2-6)GalNAc(b1-4)GlcNAc
In short: as §1

[28] = target: Neu5Ac(a2-6)GalNAc(b1-4)GlcNAc6S
In short: as §1

[29] = target: Neu5Ac(a2-6)GlcNAc(b1-4)GlcNAc
In short: as §1

[30] = target: Neu5Ac(a2-6)GlcNAc(b1-4)GlcNAc(b1-4)GlcNAc
In short: as §1

B1: Tamarinin (protein)
chain: CDDSARAGNIVVYWGQGGSDNSEGSLKEACKSGHYNMIVLQQLIVYDDGRDPDLNLGAHCSDCTKLEEQIKYCQNKDIKILLQIGQVVPTQEDVKDVTKNLSEYLLKNFFSGKSGPLGEVYLNGIDIASVPEGNNLKFDELVEALNDSSTERRIYLSASPLCVYPDYYLNKAIQTEKLDFLFVQFFYQNPCIYTEGNPENLFEAMKTWTKNVPESMIFMALPATPNLDGYIPPRVLNKEILPAVSEASNFAGVMIFDRYFDRFRKYSSKIK
glycan array binding signal (z-score) [1]: -0.175 | glycan array binding signal (z-score) [2]: -0.271 | glycan array binding signal (z-score) [3]: -0.443 | glycan array binding signal (z-score) [4]: -0.131 | glycan array binding signal (z-score) [5]: -0.404 | glycan array binding signal (z-score) [6]: -0.424 | glycan array binding signal (z-score) [7]: -0.377 | glycan array binding signal (z-score) [8]: -0.41 | glycan array binding signal (z-score) [9]: -0.493 | glycan array binding signal (z-score) [10]: -0.936 | glycan array binding signal (z-score) [11]: -0.384 | glycan array binding signal (z-score) [12]: -0.332 | glycan array binding signal (z-score) [13]: -0.312 | glycan array binding signal (z-score) [14]: -0.51 | glycan array binding signal (z-score) [15]: -0.331 | glycan array binding signal (z-score) [16]: -0.094 | glycan array binding signal (z-score) [17]: -0.332 | glycan array binding signal (z-score) [18]: -0.119 | glycan array binding signal (z-score) [19]: -0.385 | glycan array binding signal (z-score) [20]: -0.351 | glycan array binding signal (z-score) [21]: 5.41 | glycan array binding signal (z-score) [22]: 0.766 | glycan array binding signal (z-score) [23]: 0.201 | glycan array binding signal (z-score) [24]: -0.361 | glycan array binding signal (z-score) [25]: -0.138 | glycan array binding signal (z-score) [26]: -0.131 | glycan array binding signal (z-score) (Neu5Ac(a2-6)GalNAc): -0.194 | glycan array binding signal (z-score) [27]: -0.467 | glycan array binding signal (z-score) [28]: 0.087 | glycan array binding signal (z-score) [29]: -0.402 | glycan array binding signal (z-score) [30]: -0.322
